These results are taken from the RNAGym collection of RNA variant scans (doi:10.7554/elife.90254).

B1: LINE1-mini (parent)
chain: GGCAGAGCUCAACACAGCGUGGCAAAGUGGCUGUGGCUAGACUGCC

The source gives no read counts; variants with many changes may rest on few reads.

This data set covers variants of B1. In words: self-cleavage, relative activity (ratio to wild type); higher = more cleavage; in vitro, sequencing; the parent is a self-cleaving ribozyme.
With C10A G19C G21A A24U G30U G40U U43C, the self-cleavage turned out to be 0.02.
In the case of C10G A11U A14G G40A it was 0; in that of C10A G21U C46A, 0.18; in that of C10G C15U G44C, 0.04.
In the case of C10A U20A G35U G36C it was 0.01; in that of C10G A16U A24U G33C, 0; in that of C10A G27U A41G, 0.03.
The same measure for C10A G29U U34A C45G: 0; for C10A G19U G35A: 0.01; for C10A U32G C42U: 0.01.
Take C10G A16C U43A: the self-cleavage amounted to 0.01.
In the case of C10A G29C G44A it was 0.02; in that of C10G C13U U20A A39G G40U, 0.01.
The same measure for C10A G30U C31U C46U: 0.03; for C10A G35A C37G: 0; for C10G A14U C15G G21C: 0.02.
In the case of C10A U20G G21U C31G, the self-cleavage is 0.03.
The same measure for C10A U20C A24U: 0.01; for C10A U38G C45G: 0.03.
Consider C10A U20C G35A G36U, for which the self-cleavage was 0.01.
In the case of C10G C23A G30U G40C it was 0.01.
In the case of C10G G17C G40U it was 0; in that of C10A G30C A41C, 0; in that of C10G C23U G27C G29C, 0.03.
In the case of C10A G29A C31U it was 0.15; in that of C10A G33A G35A, 0.03; in that of C10G C13A C37U, 0.01.
Consider C10G A16G C42G, for which the self-cleavage is 0.02.
In the case of C10A G19U A25G U28C G36A it was 0.01.
The same measure for C10G A39U A41G: 0.14; for C10A G19A G36A: 0.03; for C10A G22U C42G: 0.01.
As to C10A G36C A41C C46G, the self-cleavage turned out to be 0.02.
In the case of C10A G27A U28C it was 0.01; in that of C10G A12G G33U G35A, 0.01; in that of C10A G33U G44A, 0.02.
In the case of C10A U20A U32A it was 0.02; in that of C10G A11G G35U, 0.05; in that of C10G A16C G17A, 0.01.
Take C10A G21A G29A: the self-cleavage came to 0.06.
The same measure for C10G C15A U34G: 0.01.
Take C10G A26U U34C: the self-cleavage was 0.01.
In the case of C10G G17A G27U, the self-cleavage was 0.04.
In the case of C10A G27C C37G C45A it was 0; in that of C10G C18A A41U, 0.01.
Turning to C10A G21C G33U G44C, the self-cleavage is 0.01.
For C10G A16G G35C, the self-cleavage came out at 0.02.
The same measure for C10G A25C C45A: 0.02.
In the case of C10A G21C A26U G35U U38A it was 0.01; in that of C10G C13A A14U A39G, 0.04.
The same measure for C10G C23G A26C: 0.35; for C10G A12G C15A A16U G19U C31G G44C: 0.
Regarding C10A U34C U43C, the self-cleavage was determined as 0.03.
In the case of C10G C15A G17A G21U G29U it was 0.01; in that of C10G C23U C31G A39U, 0.01.
In the case of C10G C13A G17A U32A G36C it was 0.04; in that of C10G C31A U32A A39U A41C, 0; in that of C10G A24U U34A, 0.04.
In the case of C10G A24G G44A it was 0.11.
As to C10A G30A G40C A41C, the self-cleavage is 0.02.
Consider C10G A39G C46U, for which the self-cleavage worked out at 0.01.
The same measure for C10G G17A G33A: 0.03.
The same measure for C10G C13G C31U G33U: 0.01; for C10A U38C G40C G44A: 0.04; for C10A U32A U34G: 0.01.
In the case of C10G C42G U43A it was 0.02.
As to C10A G27A C42U, the self-cleavage turned out to be 0.04.
For the variant C10G A11G G19C G27A G29U C31G, the self-cleavage was 0.
In the case of C10G C13A C15A G30C it was 0.02; in that of C10G G17U C45A, 0.01.
The same measure for C10G A14U C15A G21A A25U A41G: 0.
As to C10A G22U A24G, the self-cleavage came out at 0.02.
The same measure for C10A U28C C31G C42G: 0.01; for C10G G17C A25G G30A U32G A39U: 0.01; for C10A G44A C45A C46A: 0.02.
In the case of C10G C15A C42U it was 0.02; in that of C10G A11G A25C, 0.02; in that of C10G C13U C18A G33U G40C, 0.03.
The same measure for C10A G27C G40U: 0.01; for C10G A11G C45U: 0.04; for C10A U34A G40A: 0.03.
Consider C10G G17C C23U C31G U34C, for which the self-cleavage was 0.01.
The same measure for C10G A41G U43C: 0.02; for C10G C18U G33U G36U C42A: 0; for C10A G19U C23U G27U: 0.09.
The same measure for C10A G29C U43C: 0.01; for C10G C23G G30U C31U: 0.09.
In the case of C10G A25C U28C it was 0.05; in that of C10G A25U U28A C37G A39C, 0.02; in that of C10A G33C G40C, 0.02.
For the variant C10G C23U A24G G44U, the self-cleavage turned out to be 0.03.
In the case of C10G A16U U32G it was 0.02; in that of C10A G22A A25C G30U C42U, 1.03.
For C10A G40C C46A, the self-cleavage worked out at 0.04.
As to C10A G21U A24C, the self-cleavage came to 0.04.
The same measure for C10G C13U C31A C46A: 0.03.
In the case of C10A U28A U32G it was 0.06; in that of C10A U20G G21A A41C, 0.
As for C10G C23U G33C, the self-cleavage is 0.01.
Take C10A U20A G29A: the self-cleavage came out at 0.02.
In the case of C10A G27C G35A U38C C46A it was 0.01.
In the case of C10G A11U A26G C42U it was 0.03.
In the case of C10G C15U G17U G36C U43C G44A C46A it was 0.01; in that of C10G C15G A24G G36C, 0.01.
Consider C10A U32A G33U, for which the self-cleavage came to 0.04.
For the variant C10A G22C G40A, the self-cleavage was 0.02.
The same measure for C10G C13A A26U U38A: 0.03; for C10G A41G C46G: 0.03.
The same measure for C10G A11U C15A: 0.02.
In the case of C10G A12G G19A it was 0.01; in that of C10A G21U C37G A41U, 0.01.
For the variant C10A G19A A25C, the self-cleavage was found to be 0.02.
The same measure for C10A G36U C46U: 0.03.
The same measure for C10A G22U U34A: 0.05.
With C10A G19A G27C, the self-cleavage was determined as 0.04.
In the case of C10G A14G C18U U28C C45G it was 0.02.
In the case of C10A U34G C37U it was 0.01; in that of C10G C31U A41C, 0.02; in that of C10A G33A U43C C46A, 0.02.
In the case of C10A U20C G33A it was 0.01; in that of C10A G33C G35A G44A, 0.02; in that of C10G C13U A14U C18A U32A A41G, 0.01.
In the case of C10A G33A A39C, the self-cleavage amounted to 0.
Take C10A G33A A39U: the self-cleavage stood at 0.01.
The same measure for C10G A12C C31A U32C G36C C37A C46G: 0.01; for C10A G27C U34G G36U: 0.02.
In the case of C10A G33U A39U A41U it was 0.01; in that of C10A G22A G44A, 0.02.
The same measure for C10G A11G C18G: 0.02; for C10G A12C G21U U43C: 0.
On to C10G A11U G35U, for which the self-cleavage amounted to 0.02.
The same measure for C10G A24C G29U: 0.16; for C10A G19U A25U G27C G29A: 0.02; for C10G C15A U20C G33U U43A: 0.02.
In the case of C10G A11C G29A G36C it was 0.02; in that of C10A U20A G36C, 0.
Consider C10G A11U U28G, for which the self-cleavage amounted to 0.03.
In the case of C10G A11U A25G G40C, the self-cleavage amounted to 0.01.
The same measure for C10G A26C U32G C37G: 0.04; for C10G C13G C18A: 0.03; for C10A U20C U32G: 0.01.
In the case of C10G C18G G33C U34A it was 0.01; in that of C10G A12U C23U A41C G44C, 0.01; in that of C10G A26C G27U, 0.03.
In the case of C10G A11C G21U G27A G33A it was 0.02; in that of C10A G22U U28C C42G, 0.
For the variant C10A G44U C45A, the self-cleavage is 0.1.
In the case of C10A G21A G27C it was 0.05.
The same measure for C10A G22C U28G: 0.01; for C10G A16U A39U: 0.04; for C10A G19U U20A G30A: 0.06.
In the case of C10G A16G G40C it was 0.01; in that of C10G A16G G40U A41C, 0.01.
For C10G C18A G40U, the self-cleavage came to 0.04.
C10G A12G C13U C15U G29U: the self-cleavage was determined as 0.04.
In the case of C10A G21A C37U it was 0.02; in that of C10A U20A C23U C37A C42U U43C C46G, 0; in that of C10A U43G C45A, 0.07.
Take C10A G19C G40C: the self-cleavage is 0.03.
Take C10G C18A G44U: the self-cleavage stood at 0.01.
In the case of C10A G29U A39U it was 0.15.
Turning to C10G C18G G19A A39U G40C, the self-cleavage was 0.02.
In the case of C10G A39C U43C it was 0.01; in that of C10G A25C G27U C42A, 0.01; in that of C10G A25C C46A, 0.05.
In the case of C10G A14G C18G it was 0.01; in that of C10A G21U G29C, 0.06.
